Data: PubChem BioAssay (NCI)
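Each compound was tested at five concentrations against cells in 96-well plates for 48 hours. Definition used: TGI = concentration required for complete inhibition of growth.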 The source holds more than one record for some entries. The other results are left out here. The source may hold further records. For part of these data: A record mostly stands for its own series of concentrations, not given here; a value can be the end of its range. For part of these data: Values that stand side by side are repeated measurements across runs, samples, wells, individuals or studies. Marks in square brackets tell the records apart. A, B and so on number the origins entry by entry.

Assays:
Experiment in all cases: NCI anticancer screen, dose series, 48 h
SK-MEL-28 melanoma = tested on: SK-MEL-28 melanoma
COLO 205 colon = tested on: COLO 205 colon
TK-10 renal = tested on: TK-10 renal
NCI/ADR-RES ovarian = tested on: NCI/ADR-RES ovarian
DU-145 prostate = tested on: DU-145 prostate
HOP-92 NSCLC = tested on: HOP-92 NSCLC
SF-268 CNS = tested on: SF-268 CNS
A549 NSCLC = tested on: A549 NSCLC
UACC-257 melanoma = tested on: UACC-257 melanoma
MDA-MB-231 breast = tested on: MDA-MB-231 breast
BT-549 breast = tested on: BT-549 breast
OVCAR-8 ovarian = tested on: OVCAR-8 ovarian
MDA-MB-435 = tested on: MDA-MB-435
CAKI-1 renal = tested on: CAKI-1 renal
HT29 colon = tested on: HT29 colon
CCRF-CEM leukemia = tested on: CCRF-CEM leukemia
SR leukemia = tested on: SR leukemia
RPMI-8226 leukemia = tested on: RPMI-8226 leukemia

COc1cccc(/C=C/C(=O)N2CC(CCl)c3c2cc(N)c2ccccc32)c1 (stereo not drawn)
TGI (SK-MEL-28 melanoma): 30.6 nM and > 100 µM | TGI (COLO 205 colon): 51.9 nM and 1.43 µM | TGI (TK-10 renal): 16.5 nM and > 100 µM | TGI (NCI/ADR-RES ovarian): 550 nM and > 100 µM | TGI (DU-145 prostate): 0.886 nM and 1.84 µM | TGI (HOP-92 NSCLC): 552 nM and > 100 µM | TGI (SF-268 CNS): 7.97 nM and > 100 µM | TGI (A549 NSCLC): 248 nM and > 100 µM | TGI (UACC-257 melanoma): 48.8 nM and > 100 µM | TGI (MDA-MB-231 breast): 50.4 nM and > 100 µM | TGI (BT-549 breast): 110 nM and > 100 µM | TGI (OVCAR-8 ovarian): 28.3 nM and > 100 µM | TGI (MDA-MB-435): 19 nM and > 100 µM | TGI (CAKI-1 renal): 4.02 nM and 271 nM

COc1cc(/C=C/c2ccnc3ccccc23)cc(OC)c1OC
TGI (HT29 colon): 6.33 µM [sample A] and > 100 µM [sample B] | TGI (CCRF-CEM leukemia): 8.53 µM [sample A] and > 100 µM [sample B] | TGI (SR leukemia): 8.35 µM [sample A] and > 100 µM [sample B] | TGI (RPMI-8226 leukemia): 9.79 µM [sample A] and > 100 µM [sample B]
